The campaign covered roughly 350,000 compounds. About 7,000 (2%) were called active. Inconclusive means that the source gave no clear call. Such entries were picked first, then a sample of the others. Rule as the data show it: active = activation above about 40%; inconclusive = no clear call, values can overlap the other calls; inactive = below that.
test: raisers of Bmi1 knock-in reporter signal – mouse ES cells, Bmi1 luciferase knock-in, single point, esBAF inhibitor project, primary screen (AID 602393); details: 24 h, at 12.5 µM, active compounds read high, 100% = twice the neutral-well signal;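 also: 0% = median of the plate's neutral control wells and 100% = double that signal; a rise in the Bmi1 reporter signal indicates esBAF inhibition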

| SMILES | reporter increase |
| --- | --- |
| Cc1nnc(NC(=O)c2ccco2)s1 | inactive: 5.6% |
| COCC(=O)N(C)C[C@H]1Oc2ncc(C#C[C@@H](C)O)cc2C(=O)N([C@@H](C)CO)C[C@@H]1C | inactive: 0.25% |
| CCCC(=O)Nc1ccc2c(c1)OC[C@@H](C)N(CC1CCCC1)C[C@H](C)[C@H](OC)CN(C)C2=O | inactive: -5.57% |
| COc1ccc(-c2ccc(C(=O)Nc3ccc(NC(C)=O)cc3)c3occc23)c(C)c1 | inactive: -2.87% |
| O=C(O)c1cc(N/N=C/c2ccc(-c3ccccc3)cc2)ccc1Cl | inconclusive: 70.6% |
| CNc1oc(/C=C/c2cccc(OC)c2)nc1C#N | inconclusive: 74.1% |
| Cc1ccc(NC(=O)c2c(C)noc2-c2snnc2C)cc1 | inactive: 2.28% |
| S=c1[nH]ncn1/N=C/c1ccc(N2CCOCC2)cc1 | inconclusive: 42.3% |
| O=C(CNCc1ccccc1)Nc1ccc(Cl)cc1 | inconclusive: 41.4% |
| COc1ccc(CC(=O)n2nc(-c3ccc(Cl)cc3)nc2NCc2ccco2)cc1 | inconclusive: 42.8% |
| COc1cc(/C=C2/C(=O)ON=C2C)ccc1OCc1ccccc1F | inconclusive: 40.3% |
| O=C(C[C@H]1CC[C@@H](NC(=O)NC2CCCCC2)[C@H](CO)O1)NCc1ccccc1 | inactive: 0.9% |
| COc1ccc(NC(=O)Nc2ccc3c(c2)C(=O)N([C@@H](C)CO)C[C@@H](C)[C@H](CN(C)Cc2ccc(C(F)(F)F)cc2)OCCCC[C@H](C)O3)cc1 | inactive: 5.89% |
| CN(C)c1ccc(/C=C(/NC(=O)c2ccccc2)C(=O)N/N=C/c2ccc([N+](=O)[O-])c(O)c2)cc1 | inactive: -29.9% |
| CCOC(=O)c1cc2c(=O)[nH]ccc2nc1C | inactive: 4.57% |
| O=C(Nc1ccc(F)c(Cl)c1)c1ccccc1 | active: 70% |
| O=C(c1ccc(O)cc1)c1ccc(O)cc1O | inactive: 14.7% |
| CSc1ccc(NC(=O)Nc2ccccc2C(N)=O)cc1 | inconclusive: 53.5% |
| CCc1ccc(NC(=O)c2ccccc2SC)cc1 | inconclusive: 49.8% |
| Cc1ccccc1-c1noc(-c2ccc(Cl)cc2)n1 | inconclusive: 41.4% |
| CCC(CO)Oc1cc(NCc2cccnc2)c2ncn(C(C)C)c2c1 (configuration not stated) | inactive: -1.37% |
| CCN(CC(=O)NCc1cccs1)C(=O)C1CC(=O)N(c2ccc(OC)cc2OC)C1 (configuration not stated) | inconclusive: 66.5% |
| O=C(NCCc1ccccc1)C1=COCCO1 | active: 48.1% |

| SMILES | reporter increase |
| --- | --- |
| Cc1ccc(NC(=O)c2cc(=O)c3ccccc3o2)cc1 | active: 56.5% |
| Fc1ccccc1N1CCN(Cc2cc(-c3ccccc3)on2)CC1 | inactive: -7.03% |
| Clc1ccccc1-c1cc2nc(NCCCn3ccnc3)ccn2n1 | inconclusive: 46.8% |
| Cc1nn2c(N)c(-c3ccccc3)cnc2c1-c1ccc(Cl)cc1 | inconclusive: 23.9% |
| Cc1ccccc1S(=O)(=O)NCC[C@H]1CC[C@@H](NC(=O)C2CCC2)[C@H](CO)O1 | inactive: 5.02% |
| C(=NOCCc1ccccc1)c1ccccn1 | active: 95.2% |
| COc1ccc(NC(=O)N(C)C[C@@H]2Oc3ccc(NC(=O)c4ccncc4)cc3CC(=O)N([C@H](C)CO)C[C@@H]2C)cc1 | inactive: -1.04% |
| O=C(Nc1sc2c(c1C(=O)O)CCC2)c1ccc(F)cc1 | active: 63.4% |
| O=C(CSc1nc2ccc(Cl)cc2[nH]1)c1cccs1 | inconclusive: 41.4% |
| O=C(NCCc1ccccc1)C(=O)c1c[nH]c2ccccc12 | inconclusive: 39.5% |
| Cc1ccccc1NCc1nc2ccccc2n1C | inconclusive: 41.7% |
| Cc1ccc(-c2noc(CCC(=O)N3CCCc4ccccc43)n2)cc1 | inconclusive: 40.1% |
| Cc1cccc(CC(=O)NCC2CCCCC2)c1 | inconclusive: 40.8% |
| Cc1cccc(N2CCN(C(=O)CNC(=O)C3CCCCC3)CC2)c1C | inconclusive: 40.3% |
| CC(C)Oc1ccc(C(=O)Nc2ccc([N+](=O)[O-])cc2)cc1 | inconclusive: 41.2% |
| COc1ccc(CCC(=O)N2CCc3ccccc32)cc1 | active: 62.8% |
| Cc1c(C(=O)Nc2cccc([N+](=O)[O-])c2)csc1-c1ccccc1 | active: 49.7% |
| Cc1nn2c3c(cnc2c1-c1ccccc1)C(=O)CCC3 | inconclusive: 42.4% |
| Brc1cc(Br)c2nc(-c3cccs3)ccc2c1 | inconclusive: 43.2% |
| O=C(NCCOc1ccccc1)C1CCCCC1 | inconclusive: 49.5% |
| Cc1ccc(C(=O)CSc2nccn2-c2ccccc2)cc1 | inconclusive: 41.7% |
| Cc1noc(C)c1S(=O)(=O)Nc1ccc2c(c1)C(=O)N([C@H](C)CO)C[C@@H](C)[C@H](CN(C)C(=O)Nc1ccc(F)cc1)O2 | inactive: -0.226% |
| CCOc1ccc(N=C2Sc3nc4ccc(C)cc4cc3CN2CCOC)cc1 | active: 54.1% |

| SMILES | reporter increase |
| --- | --- |
| O=C1/C(=C\Nc2ccccc2)CCN1c1ncccn1 | inconclusive: 40.7% |
| C[C@H]1CCCCO[C@@H](CN(C)C(=O)Nc2ccc(F)cc2)[C@@H](C)CN([C@@H](C)CO)C(=O)c2cc(NC(=O)c3ccccc3)ccc2O1 | inactive: 6.54% |
| CCOc1ccccc1NC(=O)c1ccc(C(=O)Nc2ccccc2OCC)nc1 | inactive: -3.62% |
| COC(=O)CC(=O)CSc1nc2c(cc1C#N)CCCCC2 | inconclusive: 44.3% |
| Nc1ccc2c(c1)COC2=O | inconclusive: 39.9% |
| COC(=O)Cn1c(C)nc2c(sc3nc(C)cc(C)c32)c1=O | inconclusive: 45.8% |
| COc1ccc(NC(=O)c2cccc(F)c2)cc1Cl | active: 77.2% |
| COc1ccc(Cn2c(/C=C/c3ccccc3)nc3ccccc32)cc1 | inconclusive: 54.1% |
| O=C(OCC(=O)c1cccs1)c1ccccc1 | active: 47.4% |
| COc1ccc(-c2cnc3c(c2)C(=O)N([C@@H](C)CO)C[C@@H](C)[C@H](CN(C)Cc2ccccc2)O3)cc1 | inactive: -7.99% |
| Cc1ccc2nc(Cc3ccc(N)cc3)oc2c1 | inconclusive: 40.6% |
| CCC(C)NC(=O)c1ccc(C(=O)c2ccccc2)cc1 (configuration not stated) | inconclusive: 41% |
| COc1cc(/C=C/C(=O)NC(=O)c2ccccc2O)ccc1O | inconclusive: 44.6% |
| CCCCN(C)C(=O)c1cc2cc3ccc(OC)cc3nc2o1 | inconclusive: 27.3% |
| Cc1[nH]n(C(N)=S)c(=O)c1N=Nc1cccc([N+](=O)[O-])c1C | inconclusive: 49.7% |
| COc1ccc(N(CC(=O)Nc2ccccc2C(N)=O)S(=O)(=O)c2ccc(C)c([N+](=O)[O-])c2)cc1 | inconclusive: 39.1% |
| COc1cccc2cc(C(=O)Nc3ccccc3C)/c(=N/O)oc12 | inconclusive: 40.5% |
| O=C(Nc1ccc(F)cc1)c1ccc2nsnc2c1 | inconclusive: 45.2% |
| O=C(Nc1ccccc1)Nc1ccc2c(c1)[C@H]1C[C@H](CC(=O)N3CCOCC3)O[C@@H](CO)[C@H]1O2 | inactive: 1.89% |
| CC1(C)CC(=O)C=C(c2ccc(-c3ccc(OC(F)(F)F)cc3)cc2)C1=O | active: 56.4% |
| COC(=O)c1sc(NC(=O)Cc2cccs2)nc1C | active: 41.7% |
| COc1ccc(NC(=O)Nc2nnc(C(C)C)s2)cc1 | inconclusive: 40.6% |
| N#Cc1ccccc1NC(=O)Nc1ccc(Cl)cc1 | inactive: 7.42% |

| SMILES | reporter increase |
| --- | --- |
| O=C(NCC1COc2ccccc2O1)c1ccc(NC(=O)C2CCCO2)cc1 (configuration not stated) | inconclusive: 43.4% |
| Cc1cc(/C(N)=N/OC(=O)c2ccc(Cl)cc2)no1 | inactive: 45.3% |
| CCc1c(C)nc2ncnn2c1Nc1ccc(C(C)=O)cc1 | active: 47.7% |
| O=C(/C=C/C=C/c1ccc2c(c1)OCO2)N1CCCCC1 | active: 50.7% |
| CC(C)C#Cc1cnc2c(c1)C(=O)N([C@H](C)CO)C[C@H](C)[C@H](CN(C)S(=O)(=O)c1cn(C)cn1)O2 | inactive: -0.583% |
| c1ccc(CSc2ccc(-c3cccnc3)nn2)cc1 | active: 59.1% |
| CCOC(=O)c1ccc(NC(=O)c2ccccc2C)cc1 | inconclusive: 40.8% |
| CC(C)(C)S(=O)(=O)c1cnc2c(-c3ccc(F)cc3)cnn2c1N | inconclusive: 45% |
| CN(C)c1cccc(C(=O)NNC(=S)NC2CC3CCC2C3)c1 (configuration not stated) | inconclusive: 51.3% |
| CC(C)(C)OC(=O)N1CSC[C@H]1C(=O)NC[C@H](CC(=O)O)c1ccc(Cl)cc1 | inactive: -4.86% |
| CC(C)c1ccc(Nc2ncccc2C#N)cc1 | inconclusive: 40.6% |
| Cc1nn(Cc2ccccc2Cl)c2sc(C(=O)NCc3ccc4c(c3)OCO4)cc12 | inactive: 4.23% |
| COc1ccc(N/C=C\C(=O)c2ccc(C)cc2)cc1OC | active: 51.7% |
| Clc1ccc(-c2nc3ccc(Br)cn3c2Cc2cccc(Cl)c2)cc1 | inconclusive: 41.5% |
| CC(C)(C)C(=O)OCc1nc(-c2ccc(F)cc2)cs1 | inconclusive: 41.7% |
| O=C1C=C(N2CCCCCC2)C(=O)N1c1ccc(Cl)cc1 | inconclusive: 51.6% |
| CN1c2ccc(-c3ccccc3)cc2[C@H]2[C@H](CCN2C(=O)Cc2ccccc2)[C@@H]1CO | inactive: 1.95% |
| CC(=O)Nc1cccc(-c2cnc(NC(C)=O)cn2)c1 | inconclusive: 40.6% |
| CCCCCOC(=O)c1[nH]c2c(c1C)C(=O)C(C(=O)OC)C(C)C2 (configuration not stated) | inconclusive: 41.1% |
| COc1ccccc1N1CCN(C(=O)CSc2ccccc2)CC1 | active: 48.9% |
| N/C(Cc1ccc([N+](=O)[O-])cc1)=N\OC(=O)c1ccccc1F | inconclusive: 40.3% |
| Cc1cccc(C2Nc3ccccc3C(=O)N2CCc2ccccc2)n1 (configuration not stated) | inconclusive: 42.3% |
| CN(C)c1ccc(NC(=S)NC23CC4CC(CC(C4)C2)C3)cc1 | active: 67.2% |
